# Measured values published in the supplement of paper PMC8728848.
# The list shows a part of the results.
# B1: SLR2P2A3 (Tachypleus tridentatus), TAL2_TACTR (protein)
# chain: MEKGTPPTHDSDNWMGRAKKIGNGGWNQFQFLFFDPNGYLYAVSKDKLYKASPPQSDTDNWIARATEIGSGGWSGSKFLFFHPNGYLYAVHGQRLYKALPPVSNQD
# Assays:
# Experiment in all cases: glycan array binding signal (z-score within array); higher = stronger binding
# Settings in all cases: glycan notation: IUPAC condensed, linker removed
# [1] = target: Fuc(a1-3)[GalNAc(b1-4)]GlcNAc
# How it was run: (§1)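 The binding signal is a Z-score computed within each array and averaged over linkers. Arrays of the same protein sequence at different concentrations or buffers were also averaged together. Data originate from 3228 arrays in the Consortium for Functional Glycomics database, kept only where the protein sequence was available.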
# [2] = target: Fuc(a1-4)GlcNAc
# How it was run: as §1
# [3] = target: Fuc(b1-3)GlcNAc
# How it was run: as §1
# [4] = target: Gal(a1-2)Gal
# How it was run: as §1
# [5] = target: Gal(a1-3)Gal
# How it was run: as §1
# [6] = target: Gal(a1-3)Gal(b1-3)GlcNAc
# How it was run: as §1
# [7] = target: Gal(a1-3)Gal(b1-4)Glc
# How it was run: as §1
# [8] = target: Gal(a1-3)Gal(b1-4)GlcNAc
# How it was run: as §1
# [9] = target: Gal(a1-3)Gal(b1-4)[Fuc(a1-3)]GlcNAc
# How it was run: as §1
# [10] = target: Gal(a1-3)GalNAc
# How it was run: as §1
# [11] = target: Gal(a1-3)[Gal(a1-4)]Gal(b1-4)GlcNAc
# How it was run: as §1
# [12] = target: Gal(a1-4)Gal(b1-4)Glc
# How it was run: as §1
# [13] = target: Gal(a1-4)Gal(b1-4)GlcNAc
# How it was run: as §1
# [14] = target: Gal(a1-4)GlcNAc
# How it was run: as §1
# [15] = target: Gal(a1-6)Glc
# How it was run: as §1
# [16] = target: Gal(b1-2)Gal
# How it was run: as §1
# [17] = target: Gal(b1-3)Gal
# How it was run: as §1
# [18] = target: Gal(b1-3)Gal(b1-4)GlcNAc
# How it was run: as §1
# [19] = target: Gal(b1-3)GalNAc
# How it was run: as §1
# [20] = target: Gal(b1-3)GalNAc(b1-3)Gal(a1-4)Gal(b1-4)Glc
# How it was run: as §1
# [21] = target: Gal(b1-3)GalNAc(b1-4)Gal(b1-4)Glc
# How it was run: as §1
# [22] = target: Gal(b1-3)GalNAc(b1-4)[Neu5Ac(a2-3)]Gal(b1-4)Glc
# How it was run: as §1
# [23] = target: Gal(b1-3)GlcNAc
# How it was run: as §1
# [24] = target: Gal(b1-3)GlcNAc(b1-2)Man(a1-3)[Gal(b1-3)GlcNAc(b1-2)Man(a1-6)]Man(b1-4)GlcNAc(b1-4)GlcNAc
# How it was run: as §1
# [25] = target: Gal(b1-3)GlcNAc(b1-3)Gal(b1-3)GlcNAc
# How it was run: as §1
# [26] = target: Gal(b1-3)GlcNAc(b1-3)Gal(b1-4)Glc
# How it was run: as §1
# [27] = target: Gal(b1-3)GlcNAc(b1-3)Gal(b1-4)GlcNAc
# How it was run: as §1
# [28] = target: Gal(b1-3)[Fuc(a1-4)]GlcNAc
# How it was run: as §1
# [29] = target: Gal(b1-3)[Fuc(a1-4)]GlcNAc(b1-3)Gal(b1-3)[Fuc(a1-4)]GlcNAc
# How it was run: as §1
# [30] = target: Gal(b1-3)[Fuc(a1-4)]GlcNAc(b1-3)Gal(b1-4)GlcNAc
# How it was run: as §1
# [31] = target: Gal(b1-3)[Fuc(a1-4)]GlcNAc(b1-3)Gal(b1-4)[Fuc(a1-3)]GlcNAc
# How it was run: as §1
# [32] = target: Gal(b1-3)[GlcNAc(b1-6)]GalNAc
# How it was run: as §1
# [33] = target: Gal(b1-3)[Neu5Ac(a2-6)]GalNAc
# How it was run: as §1
# [34] = target: Gal(b1-3)[Neu5Ac(a2-6)]GlcNAc(b1-6)Gal(b1-4)Glc
# How it was run: as §1
# [35] = target: Gal(b1-3)[Neu5Ac(b2-6)]GalNAc
# How it was run: as §1
# [36] = target: Gal(b1-4)GalNAc(a1-3)[Fuc(a1-2)]Gal(b1-4)GlcNAc
# How it was run: as §1
# [37] = target: Gal(b1-4)GalNAc(b1-3)[Fuc(a1-2)]Gal(b1-4)GlcNAc
# How it was run: as §1
# [38] = target: Gal(b1-4)Glc
# How it was run: as §1
# [39] = target: Gal(b1-4)Glc6S
# How it was run: as §1
# [40] = target: Gal(b1-4)GlcNAc
# How it was run: as §1
# [41] = target: Gal(b1-4)GlcNAc(a1-6)Gal(b1-4)GlcNAc
# How it was run: as §1
# [42] = target: Gal(b1-4)GlcNAc(b1-2)Man(a1-3)[Gal(b1-4)GlcNAc(b1-2)Man(a1-6)]Man(b1-4)GlcNAc(b1-4)GlcNAc
# How it was run: as §1
# [43] = target: Gal(b1-4)GlcNAc(b1-3)Gal(b1-3)GlcNAc
# How it was run: as §1
# [44] = target: Gal(b1-4)GlcNAc(b1-3)Gal(b1-4)Glc
# How it was run: as §1
# [45] = target: Gal(b1-4)GlcNAc(b1-3)Gal(b1-4)GlcNAc
# How it was run: as §1
binder,measurement,setting,value
B1,glycan array binding signal (z-score),[1],0.139
same,glycan array binding signal (z-score),[2],-0.416
same,glycan array binding signal (z-score),[3],0.027
same,glycan array binding signal (z-score),[4],-0.068
same,glycan array binding signal (z-score),[5],-0.317
same,glycan array binding signal (z-score),[6],-0.279
same,glycan array binding signal (z-score),[7],-0.17
same,glycan array binding signal (z-score),[8],-0.211
same,glycan array binding signal (z-score),[9],-0.175
same,glycan array binding signal (z-score),[10],0.009
same,glycan array binding signal (z-score),[11],0.006
same,glycan array binding signal (z-score),[12],0.014
same,glycan array binding signal (z-score),[13],-0.115
same,glycan array binding signal (z-score),[14],0.132
same,glycan array binding signal (z-score),[15],0.235
same,glycan array binding signal (z-score),[16],-0.307
same,glycan array binding signal (z-score),[17],-0.234
same,glycan array binding signal (z-score),[18],-0.347
same,glycan array binding signal (z-score),[19],-0.012
same,glycan array binding signal (z-score),[20],1.24
same,glycan array binding signal (z-score),[21],-0.537
same,glycan array binding signal (z-score),[22],-0.513
same,glycan array binding signal (z-score),[23],-0.372
same,glycan array binding signal (z-score),[24],-0.043
same,glycan array binding signal (z-score),[25],-0.344
same,glycan array binding signal (z-score),[26],0.014
same,glycan array binding signal (z-score),[27],0.128
same,glycan array binding signal (z-score),[28],-0.021
same,glycan array binding signal (z-score),[29],-0.635
same,glycan array binding signal (z-score),[30],0.113
same,glycan array binding signal (z-score),[31],0.094
same,glycan array binding signal (z-score),[32],-0.374
same,glycan array binding signal (z-score),[33],-0.332
same,glycan array binding signal (z-score),[34],0.285
same,glycan array binding signal (z-score),[35],-0.092
same,glycan array binding signal (z-score),[36],-0.211
same,glycan array binding signal (z-score),[37],0.214
same,glycan array binding signal (z-score),[38],2.79
same,glycan array binding signal (z-score),[39],0.015
same,glycan array binding signal (z-score),[40],-0.206
same,glycan array binding signal (z-score),[41],-0.223
same,glycan array binding signal (z-score),[42],-0.011
same,glycan array binding signal (z-score),[43],0.027
same,glycan array binding signal (z-score),[44],-0.197
same,glycan array binding signal (z-score),[45],-0.306
